The target of assay [1] is T1, Nop1-FLAG (S. cerevisiae) (UniProt P15646).
T1 sequence: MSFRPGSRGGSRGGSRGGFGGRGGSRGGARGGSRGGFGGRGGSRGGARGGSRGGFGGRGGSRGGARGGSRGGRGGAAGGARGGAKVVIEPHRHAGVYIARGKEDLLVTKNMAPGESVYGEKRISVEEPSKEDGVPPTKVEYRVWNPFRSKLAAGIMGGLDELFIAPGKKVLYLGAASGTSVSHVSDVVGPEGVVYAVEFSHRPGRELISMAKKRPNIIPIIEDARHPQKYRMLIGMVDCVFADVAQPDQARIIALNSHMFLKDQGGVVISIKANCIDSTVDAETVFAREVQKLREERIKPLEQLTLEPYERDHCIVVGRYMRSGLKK
The assay can be described thus: co-IP; FLAG pulldown: anti-FLAG (M2) beads on soluble lysate of endogenously C-terminal 3xFLAG-tagged yeast strains, log phase; buffer H with 0.1 M KCl, washes with 0.3 or 0.5 M KCl, FLAG peptide elution; Western blot or silver stain; also lysate treated with RNase A or DNase I, pih1Δ or tah1Δ background, rapamycin, Nup53 or Nup53-CΔ overexpression, bead-bound Nop58-FLAG complex with or without 4 mM ATP.

Assay [2] has as its target T2, Nop56-FLAG (S. cerevisiae) (UniProt Q12460).
T2 sequence: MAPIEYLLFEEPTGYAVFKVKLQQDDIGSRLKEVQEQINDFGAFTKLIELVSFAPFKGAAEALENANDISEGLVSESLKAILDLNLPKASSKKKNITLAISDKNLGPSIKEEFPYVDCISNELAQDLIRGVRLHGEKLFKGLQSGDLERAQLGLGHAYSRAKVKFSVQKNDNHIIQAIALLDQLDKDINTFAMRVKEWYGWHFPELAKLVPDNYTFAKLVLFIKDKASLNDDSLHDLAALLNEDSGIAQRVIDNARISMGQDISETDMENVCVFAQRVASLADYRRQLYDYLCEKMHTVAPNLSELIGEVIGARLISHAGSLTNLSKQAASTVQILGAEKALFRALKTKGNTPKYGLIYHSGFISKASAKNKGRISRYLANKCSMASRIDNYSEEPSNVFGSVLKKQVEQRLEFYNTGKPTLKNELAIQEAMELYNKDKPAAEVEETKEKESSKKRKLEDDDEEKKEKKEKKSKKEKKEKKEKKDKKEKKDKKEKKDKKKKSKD
The description is as above.

Assay [3] deals with T3, Snu13-FLAG (S. cerevisiae) (UniProt P39990).
T3 sequence: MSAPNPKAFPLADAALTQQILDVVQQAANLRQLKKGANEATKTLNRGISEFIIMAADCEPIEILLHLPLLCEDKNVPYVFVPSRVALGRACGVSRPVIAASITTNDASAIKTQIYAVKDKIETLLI
The description is as above.

In assay [4] the target is T4, Nop58(1–511)-FLAG (S. cerevisiae), Q12499.
T4 chain: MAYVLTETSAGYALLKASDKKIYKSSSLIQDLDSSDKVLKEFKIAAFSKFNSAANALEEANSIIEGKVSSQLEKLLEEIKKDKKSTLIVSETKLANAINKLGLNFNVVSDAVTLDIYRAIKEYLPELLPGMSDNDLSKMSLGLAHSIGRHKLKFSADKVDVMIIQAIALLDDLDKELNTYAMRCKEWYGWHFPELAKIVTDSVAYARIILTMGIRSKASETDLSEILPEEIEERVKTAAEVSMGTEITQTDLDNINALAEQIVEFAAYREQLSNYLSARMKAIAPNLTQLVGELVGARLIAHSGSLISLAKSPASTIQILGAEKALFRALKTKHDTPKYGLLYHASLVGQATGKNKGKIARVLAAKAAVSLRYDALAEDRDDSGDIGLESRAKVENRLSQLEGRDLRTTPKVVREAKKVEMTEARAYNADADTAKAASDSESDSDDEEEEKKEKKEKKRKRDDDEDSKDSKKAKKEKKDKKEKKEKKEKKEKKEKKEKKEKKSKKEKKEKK
The assay can be described thus: co-IP; FLAG pulldown: anti-FLAG beads on lysate of yeast overexpressing p416GAL Nop58-FLAG subdomain constructs after galactose induction (6 h, 30°C); Western blot. The conditions noted are these: remark: other sources report otherwise.

Assay [5] addresses T5, Nop58-FLAG (S. cerevisiae), Q12499.
T5 chain: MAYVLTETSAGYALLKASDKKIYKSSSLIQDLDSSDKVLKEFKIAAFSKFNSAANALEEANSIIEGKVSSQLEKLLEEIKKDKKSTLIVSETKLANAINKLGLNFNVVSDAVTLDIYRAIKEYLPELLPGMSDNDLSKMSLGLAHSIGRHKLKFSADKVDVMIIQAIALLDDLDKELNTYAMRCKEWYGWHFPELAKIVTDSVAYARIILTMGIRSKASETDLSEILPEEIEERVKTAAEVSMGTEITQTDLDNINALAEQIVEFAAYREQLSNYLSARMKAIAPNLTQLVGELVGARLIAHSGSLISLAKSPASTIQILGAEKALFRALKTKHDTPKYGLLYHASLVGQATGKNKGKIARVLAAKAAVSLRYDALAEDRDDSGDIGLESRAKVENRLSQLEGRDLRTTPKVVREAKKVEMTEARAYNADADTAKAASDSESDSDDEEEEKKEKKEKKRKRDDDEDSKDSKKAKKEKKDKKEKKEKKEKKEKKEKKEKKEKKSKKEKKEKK
The assay can be described thus: co-IP; FLAG pulldown: anti-FLAG (M2) beads on soluble lysate of endogenously C-terminal 3xFLAG-tagged yeast strains, log phase; buffer H with 0.1 M KCl, washes with 0.3 or 0.5 M KCl, FLAG peptide elution; Western blot or silver stain; also lysate treated with RNase A or DNase I, pih1Δ or tah1Δ background, rapamycin, Nup53 or Nup53-CΔ overexpression, bead-bound Nop58-FLAG complex with or without 4 mM ATP. The conditions noted are these: remark: other sources report otherwise.

These are yes or no findings as the source states them, for the method shown. In cells and extracts the contact can be indirect. Some results given as binding are weak or reduced against the parent protein; the word gives no strength. Sequences can lack the tags named with a protein.

B1: Tah1 (protein, UniProt P25638 1-111)
chain: MSQFEKQKEQGNSLFKQGLYREAVHCYDQLITAQPQNPVGYSNKAMALIKLGEYTQAIQMCQQGLRYTSTAEHVAIRSKLQYRLELAQGAVGSVQIPVVEVDELPEGYDRS
B1: the binding result in assay [1], in assay [2] and in assay [3] was “no binding” in each case.

B2: Nop1, P15646 1-327 (protein)
chain: MSFRPGSRGGSRGGSRGGFGGRGGSRGGARGGSRGGFGGRGGSRGGARGGSRGGFGGRGGSRGGARGGSRGGRGGAAGGARGGAKVVIEPHRHAGVYIARGKEDLLVTKNMAPGESVYGEKRISVEEPSKEDGVPPTKVEYRVWNPFRSKLAAGIMGGLDELFIAPGKKVLYLGAASGTSVSHVSDVVGPEGVVYAVEFSHRPGRELISMAKKRPNIIPIIEDARHPQKYRMLIGMVDCVFADVAQPDQARIIALNSHMFLKDQGGVVISIKANCIDSTVDAETVFAREVQKLREERIKPLEQLTLEPYERDHCIVVGRYMRSGLKK
Take B2: the binding result in assay [4] and in assay [5] was “binds” each time.

B3: full-length Pih1 (natural protein, S. cerevisiae, UniProt P38768 1-344, looked up)
chain: MADFLLRPIKQRHRNEDKYVSVDAADGSVSKIEPIADFVIKTKLLSANGPEKLQDGRKVFINVCHSPLVPKPEVDFNARIVFPLIIQNEWEIPIITSCYRMDHDKKGQECYVWDCCINSDCSRWICDDIQLREILVEWCLESCEIRDSVVLCRDRIAFPKMKKKGAELPALEVLNDELHQDYKAKMHKIIEEEAGDPMSILRGRNDDGDDNNDPDDGTLPPLFPIENKISGAKIEEIDKNEIAHRNLKQAPAPAPAPHEQQEDVPEYEVKMKRFKGAAYKLRILIENKAPNSKPDRFSPSYNFAENILYINGKLSIPLPRDIVVNAADIKIFHIRKERTLYIYI
notes: Pih1, S. cerevisiae, 344 amino acids
Take B3: the binding entry in assay [1], in assay [2] and in assay [3] was “no binding” throughout.
